Reference: PubChem BioAssay AID1745853 (National Center for Advancing Translational Sciences (NCATS), 2022)
This is one part of the list. Shown are side measurements of this screen, not its main read-out; they come without a call.

Tests used:
Test in all cases: Primary Screen for Target Class Profiling of Small Molecule Inhibitors of Methyltransferases
[1] = target: Glycine N-methyltransferase (Homo sapiens) (UniProt Q14749); details: purified enzyme, MTase-Glo SAH luminescence; measured here: GNMT inhibition; at 40 µM; stronger effect = lower value
How it was run: (§1)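 Each enzyme was reacted with SAM and its substrate, with compounds tested once at 40 uM; SAH formed was read by MTase-Glo luminescence.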

[2] = target: Guanidinoacetate N-methyltransferase (Homo sapiens) (UniProt Q14353); details: purified enzyme, MTase-Glo SAH luminescence; measured here: GAMT inhibition; at 40 µM; stronger effect = lower value
How it was run: as §1

[3] = target: Histamine N-methyltransferase (Homo sapiens) (UniProt P50135); details: purified enzyme, MTase-Glo SAH luminescence; measured here: HNMT inhibition; at 40 µM; stronger effect = lower value
How it was run: as §1

[4] = target: Nicotinamide N-methyltransferase (Homo sapiens) (UniProt P40261); details: purified enzyme, MTase-Glo SAH luminescence; measured here: NNMT inhibition; at 40 µM; stronger effect = lower value
How it was run: as §1

[5] = target: Phenylethanolamine N-methyltransferase (Homo sapiens) (UniProt P11086); details: purified enzyme, MTase-Glo SAH luminescence; measured here: PNMT inhibition; at 40 µM; stronger effect = lower value
How it was run: as §1
% is set by controls: 0 for no effect and ±100 for the full control effect.

SMILES: CC1c2cccn2-c2ccccc2CN1C(=O)Nc1ccccc1Cl (stereo not given)
- activity change, negative = inhibition [1]: 1.12%
- activity change, negative = inhibition [2]: 0%
- activity change, negative = inhibition [3]: 0.685%
- activity change, negative = inhibition [4]: -2.64%
- activity change, negative = inhibition [5]: 3.01%

SMILES: CC(=O)[C@H]1CC[C@H]2[C@@H]3CC[C@H]4C[C@](C)(O)CC[C@]4(C)[C@H]3CC[C@]12C
- activity change, negative = inhibition [1]: -2.12%
- activity change, negative = inhibition [2]: 9.06%
- activity change, negative = inhibition [3]: 0.274%
- activity change, negative = inhibition [4]: -1.93%
- activity change, negative = inhibition [5]: 10.1%

SMILES: Cc1sc2ccccc2c1CC1=NCCN1
- activity change, negative = inhibition [1]: -12.5%
- activity change, negative = inhibition [2]: 7.94%
- activity change, negative = inhibition [3]: -12.9%
- activity change, negative = inhibition [4]: -11.7%
- activity change, negative = inhibition [5]: -28.4%

SMILES: CN(C)c1ccc(C2c3cccn3-c3ccccc3CN2C(=O)NCc2ccco2)cc1 (stereo not given)
- activity change, negative = inhibition [1]: 7.98%
- activity change, negative = inhibition [2]: 4.09%
- activity change, negative = inhibition [3]: -4.42%
- activity change, negative = inhibition [4]: -5.85%
- activity change, negative = inhibition [5]: 2.4%

SMILES: CCc1ccc(C2c3cccn3-c3ccccc3CN2C(=O)Nc2ccc(Br)cc2)cc1 (stereo not given)
- activity change, negative = inhibition [1]: 13.8%
- activity change, negative = inhibition [2]: 0.889%
- activity change, negative = inhibition [3]: 4.99%
- activity change, negative = inhibition [4]: 2.06%
- activity change, negative = inhibition [5]: 5.96%

SMILES: COc1ccc(N(C(=O)Oc2c(C)cccc2C)c2ccnc(Nc3ccc(N4CCN(C)CC4)cc3)n2)c(OC)c1
- activity change, negative = inhibition [1]: 2.3%
- activity change, negative = inhibition [2]: 11.8%
- activity change, negative = inhibition [3]: 1.8%
- activity change, negative = inhibition [4]: -13.3%
- activity change, negative = inhibition [5]: -4.21%

SMILES: COC1=C[C@@H]2[C@@H]3Cc4ccc(OC)c(O)c4[C@]2(CCN3C)CC1=O
- activity change, negative = inhibition [1]: 3.29%
- activity change, negative = inhibition [2]: 3.97%
- activity change, negative = inhibition [3]: 6.5%
- activity change, negative = inhibition [4]: -6.53%
- activity change, negative = inhibition [5]: 3.11%

SMILES: CCOc1ccc(C2c3cccn3-c3ccccc3CN2C(=O)Nc2cc(C)ccc2C)cc1 (stereo not given)
- activity change, negative = inhibition [1]: -1%
- activity change, negative = inhibition [2]: 0%
- activity change, negative = inhibition [3]: 2.61%
- activity change, negative = inhibition [4]: 7.22%
- activity change, negative = inhibition [5]: 4.17%

SMILES: C[N+](C)(C)CCOC(=O)CBr
- activity change, negative = inhibition [1]: 1.51%
- activity change, negative = inhibition [2]: 11.3%
- activity change, negative = inhibition [3]: -5.38%
- activity change, negative = inhibition [4]: -2.69%
- activity change, negative = inhibition [5]: 8.86%

SMILES: C/C(=C\c1csc(C)n1)[C@@H]1C[C@@H]2O[C@@H]2CCC[C@H](C)[C@H](O)[C@@H](C)C(=O)C(C)(C)[C@@H](O)CC(=O)O1
- activity change, negative = inhibition [1]: -2.16%
- activity change, negative = inhibition [2]: -7.83%
- activity change, negative = inhibition [3]: 0.618%
- activity change, negative = inhibition [4]: -19.1%
- activity change, negative = inhibition [5]: -2.63%

SMILES: CCc1nn(C)c(C(=O)NCc2ccc(Oc3ccc(C)cc3)cc2)c1Cl
- activity change, negative = inhibition [1]: -0.785%
- activity change, negative = inhibition [2]: -5.15%
- activity change, negative = inhibition [3]: 12.8%
- activity change, negative = inhibition [4]: -17.4%
- activity change, negative = inhibition [5]: -1.28%

SMILES: CC(=O)O[C@H]1C[C@@H](OC(C)=O)C(C)(C)C2C[C@@H](O)[C@]3(C)C(CC[C@@]4(C)[C@H](C5=CC(=O)OC5O)C[C@H]5O[C@]543)[C@]21C (stereo not given in full)
- activity change, negative = inhibition [1]: 2.45%
- activity change, negative = inhibition [2]: 4.52%
- activity change, negative = inhibition [3]: 4.88%
- activity change, negative = inhibition [4]: -10.8%
- activity change, negative = inhibition [5]: 2.24%

SMILES: CO[C@@H]1C[C@H](O[C@H]2CC[C@@]3(C)C(CCC4C3CC[C@]3(C)[C@@H](C5=CC(=O)OC5)[C@@H](OC(C)=O)CC43O)C2)O[C@H](C)[C@@H]1O[C@H]1O[C@H](CO[C@@H]2O[C@H](CO)[C@@H](O)[C@H](O)[C@H]2O)[C@@H](O)[C@H](O)[C@H]1O (stereo not given in full)
- activity change, negative = inhibition [1]: 0.84%
- activity change, negative = inhibition [2]: -1.8%
- activity change, negative = inhibition [3]: 3.47%
- activity change, negative = inhibition [4]: -11%
- activity change, negative = inhibition [5]: -5.7%

SMILES: CSc1ccc(C2c3cccn3-c3ccccc3CN2C(=O)Nc2ccc3c(c2)OCCO3)cc1 (stereo not given)
- activity change, negative = inhibition [1]: -4.19%
- activity change, negative = inhibition [2]: 1.6%
- activity change, negative = inhibition [3]: -0.475%
- activity change, negative = inhibition [4]: 0%
- activity change, negative = inhibition [5]: 4.35%

SMILES: CCn1ccc(C(=O)N2[C@H]3CC[C@@H]2c2cnc(C)nc2C3)n1
- activity change, negative = inhibition [1]: -3.89%
- activity change, negative = inhibition [2]: -2.91%
- activity change, negative = inhibition [3]: -0.623%
- activity change, negative = inhibition [4]: -2.01%
- activity change, negative = inhibition [5]: -20.4%

SMILES: CCCN1CCN(C(=O)Cc2cccn2-c2ccc(F)cc2)CC1
- activity change, negative = inhibition [1]: -4.88%
- activity change, negative = inhibition [2]: -4.72%
- activity change, negative = inhibition [3]: -1.41%
- activity change, negative = inhibition [4]: -8.08%
- activity change, negative = inhibition [5]: -9.81%

SMILES: CCOc1ccc(C2c3cccn3-c3ccccc3CN2C(=O)Nc2ccccc2Cl)cc1 (stereo not given)
- activity change, negative = inhibition [1]: 0.803%
- activity change, negative = inhibition [2]: 0%
- activity change, negative = inhibition [3]: -1.72%
- activity change, negative = inhibition [4]: -1.71%
- activity change, negative = inhibition [5]: 1.88%

SMILES: CCOc1ccc(NC(=O)N2Cc3ccccc3-n3cccc3C2c2ccc(SC)cc2)cc1 (stereo not given)
- activity change, negative = inhibition [1]: 0.813%
- activity change, negative = inhibition [2]: 0.053%
- activity change, negative = inhibition [3]: 3.54%
- activity change, negative = inhibition [4]: 5.73%
- activity change, negative = inhibition [5]: 8.07%

SMILES: Cc1cccc(C2c3cccn3-c3ccccc3CN2C(=O)Nc2ccc(F)cc2)c1 (stereo not given)
- activity change, negative = inhibition [1]: 6.77%
- activity change, negative = inhibition [2]: 4.67%
- activity change, negative = inhibition [3]: 8.41%
- activity change, negative = inhibition [4]: 3.1%
- activity change, negative = inhibition [5]: 4%

SMILES: CC1C/C=C/C(O)C(O)CC/C=C/c2cc(O)cc(O)c2C(=O)O1 (stereo not given)
- activity change, negative = inhibition [1]: -9.27%
- activity change, negative = inhibition [2]: 2.93%
- activity change, negative = inhibition [3]: -15.5%
- activity change, negative = inhibition [4]: -9.61%
- activity change, negative = inhibition [5]: -2.44%

SMILES: NCC(CC(=O)O)c1ccc(Cl)cc1 (stereo not given)
- activity change, negative = inhibition [1]: 10.3%
- activity change, negative = inhibition [2]: 9.73%
- activity change, negative = inhibition [3]: 11.3%
- activity change, negative = inhibition [4]: -7.23%
- activity change, negative = inhibition [5]: -3.38%

SMILES: CC(C)[C@]12O[C@H]1[C@@H]1O[C@]13[C@]1(O[C@H]1C[C@H]1C4=C(CC[C@@]13C)C(=O)OC4)[C@@H]2O
- activity change, negative = inhibition [1]: 2.55%
- activity change, negative = inhibition [2]: 6.65%
- activity change, negative = inhibition [3]: 6.53%
- activity change, negative = inhibition [4]: -5.55%
- activity change, negative = inhibition [5]: 3.1%

SMILES: C[C@]12CC[C@H](O)C[C@@H]1CC[C@@H]1[C@@H]2CC[C@]2(C)[C@@H](C3=CC(=O)OC3)CC[C@]12O
- activity change, negative = inhibition [1]: 1.33%
- activity change, negative = inhibition [2]: 3.21%
- activity change, negative = inhibition [3]: 9.87%
- activity change, negative = inhibition [4]: -11.3%
- activity change, negative = inhibition [5]: -2.69%

SMILES: Cc1cccc(C2c3cccn3-c3ccccc3CN2C(=O)Nc2ccccc2C)c1 (stereo not given)
- activity change, negative = inhibition [1]: 3.02%
- activity change, negative = inhibition [2]: 0.285%
- activity change, negative = inhibition [3]: -2.56%
- activity change, negative = inhibition [4]: -5.41%
- activity change, negative = inhibition [5]: 0.512%

SMILES: CC(C)NC(=O)N1Cc2ccccc2-n2cccc2C1c1ccccc1Cl (stereo not given)
- activity change, negative = inhibition [1]: 0.83%
- activity change, negative = inhibition [2]: 0.989%
- activity change, negative = inhibition [3]: 1.11%
- activity change, negative = inhibition [4]: -4.94%
- activity change, negative = inhibition [5]: -1.63%

SMILES: CCc1cnc(N2CCC3(CC2)C(=O)Nc2cc(OCC4CC4)c(OC)cc23)nc1
- activity change, negative = inhibition [1]: -7.8%
- activity change, negative = inhibition [2]: -3.69%
- activity change, negative = inhibition [3]: -4%
- activity change, negative = inhibition [4]: -11.9%
- activity change, negative = inhibition [5]: -5.74%

SMILES: CN1CCC2=C(C1)c1ccccc1Cc1ccccc12
- activity change, negative = inhibition [1]: -0.115%
- activity change, negative = inhibition [2]: 10.3%
- activity change, negative = inhibition [3]: -3.91%
- activity change, negative = inhibition [4]: -17.7%
- activity change, negative = inhibition [5]: 4.54%

SMILES: COc1cc2c(cc1OCC1CCCC1)N([S+](=O)([O-])c1ccc(Oc3ccccc3)cc1)CC21CCN(CC(=O)O)CC1
- activity change, negative = inhibition [1]: -8.02%
- activity change, negative = inhibition [2]: -9.77%
- activity change, negative = inhibition [3]: -4.87%
- activity change, negative = inhibition [4]: -5.52%
- activity change, negative = inhibition [5]: -6.88%
